The other results are listed elsewhere or left out. Sequences were assembled here from the parent chain. Values near 0.05 are background.
B1: TEV protease; numbered along this chain (parent)
chain: MGESLFKGPRDYNPISSSICHLTNESDGHTTSLYGIGFGPFIITNKHLFRRNNGTLVVQSLHGVFKVKDTTTLQQHLVDGRDMIIIRMPKDFPPFPQKLKFREPQREERICLVTTNFQTKSMSSMVSDTSCTFPSGDGIFWKHWIQTKDGQCGSPLVSTRDGFIVGIHSASNFTNTNNYFTSVPKNFMELLTNQEAQQWVSGWRLNADSVLWGGHKVFMVKPEEPFQPVKEATQL

Variants of: B1
Assay: raw area under fraction-flipped curve 0-4 h after induction (AUC4h, not background-subtracted), DNA-recorder readout of cleavage of the substrate (dimensionless); higher = more cleavage of the substrate by the protease variant
Details: temperature: 34 °C; time window: 0-4 h after rhamnose induction
Method: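 In vivo DNA recorder in E. coli TOP10(DE3) ΔrhaA at 34 °C. Each TEVp single-site mutant (parent TEVp 0) is paired with a single-site variant of the 7-mer TEVs (canonical ENLYFQ|S). The substrate sits between flexible linkers in a Bxb1-sfGFP-TEVs-SsrA fusion, so cleavage stabilises Bxb1 and speeds flipping of a recombination array, read by NGS. The value is the raw area under the fraction-flipped curve over 0-4 h after rhamnose induction (AUC4h), with ≥20 reads per time point. It is not background-subtracted; inactive controls average about 0.047.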
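Also: Bxb1 expression induced with 0.2% (w/v) L-rhamnose at OD600 near 0.5, cultures sampled hourly, flipped fraction per protease–substrate barcode pair counted by paired-end Illumina sequencing.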

Variant | area with substrate ENLAFQS | area with substrate ENLCFQS | area with substrate ENLDFQS | area with substrate ENLEFQS | area with substrate ENLFFQS | area with substrate ENLGFQS | area with substrate ENLHFQS | area with substrate ENLIFQS | area with substrate ENLKFQS | area with substrate ENLLFQS | area with substrate ENLMFQS | area with substrate ENLPFQS | area with substrate ENLQFQS | area with substrate ENLRFQS | area with substrate ENLSFQS | area with substrate ENLTFQS | area with substrate ENLWFQS | area with substrate ENLNFQS | area with substrate ENLVFQS
P184I | 0.0621 | 0.0604 | 0.0607 | 0.047 | 0.0575 | 0.0959 | 0.0521 | 0.0587 | 0.0721 | 0.0622 | 0.04 | 0.0571 | 0.0502 | 0.0704 | 0.0724 | 0.0659 | 0.0925 | – | –
K120Y | 0.0646 | 0.0644 | 0.0578 | 0.0859 | 0.0397 | – | 0.0483 | 0.0843 | 0.057 | 0.0564 | 0.0657 | – | – | – | 0.0625 | – | 0.034 | 0.0565 | 0.0703
C152I | 0.0616 | 0.0516 | 0.0662 | 0.0658 | 0.0519 | – | 0.0582 | 0.0602 | 0.0756 | 0.0596 | – | 0.0679 | 0.0566 | 0.0631 | 0.0577 | – | 0.0654 | 0.0625 | 0.0589
I43R | 0.056 | – | 0.0494 | 0.054 | 0.036 | – | 0.0493 | 0.0582 | 0.0501 | 0.0555 | 0.0598 | 0.0556 | 0.0333 | 0.0276 | 0.0516 | – | 0.041 | 0.052 | –
T174D | 0.0774 | – | 0.0719 | 0.0528 | 0.0964 | 0.062 | 0.0678 | 0.0698 | 0.0717 | 0.0698 | – | 0.0494 | 0.0041 | 0.0524 | 0.0666 | 0.0774 | 0.0774 | 0.0715 | 0.0845
V165E | 0.0563 | 0.05 | 0.0588 | 0.0567 | 0.0524 | 0.0628 | 0.0586 | 0.0474 | 0.0701 | 0.0432 | 0.0595 | 0.0581 | – | 0.0542 | 0.0695 | – | 0.0516 | 0.0492 | 0.0615
